Test results: paper PMC5892938
This is one part of the list. Construct or isoform of the protein are uncertain.

target: GST-SBP-ILF3 (Homo sapiens) (UniProt Q12906); assay: targeted RNA Bind-n-Seq; conditions: RBNS binding buffer: 25 mM Tris pH 7.5, 150 mM KCl, 3 mM MgCl2, 0.1% Tween, 0.5 mg/mL BSA, 1 mM DTT; 27 nM protein, 750 pM RNA pool; temperature not stated; high values mean tight binding; sequences stand for … in GGGUAAAAGCGAGGUGAA…CGGGACAAGUAUUAUGGG

| Sequence | binding signal (log2 fold change) |
| --- | --- |
| UUUUUUUUUUGAGAUGGCAGCCAUCUCCAG [tttttgagapaired] | 0.573 |
| UUUUUUUUUUGAGAGCGUUCCGCUCUCCUA [tttttgagapaired] | 0.41 |
| UUUUUUUUUUGAGACGGAAGCCGUUUCCGG [tttttgagapaired] | 0.699 |
| GUGUGUGGUGUUGGCUUCUAACACCGCAUA [gtspaired] | -0.905 |
| GUGUGGUGUGUUGGCCUCUAACACAUCACG [gtspaired] | -0.756 |
| UUUUUUUUUUGAGACGGUGUCUGUCUUCUA [tttttgagapaired] | 0.725 |
| UUUUUUUUUUGAGAUGGUGUCCAUCUUCUA [tttttgagapaired] | 0.484 |
| GUGUGUUGUGUUGGAACCUAACACAACGCA [gtspaired] | -0.803 |
| GUGUGUGGUGUUGGCACCUAACACCGCACA [gtspaired] | -0.915 |
| UUUUUUUUUUGAGACGGUGGCCGUCUCCAG [tttttgagapaired] | 0.723 |
| GUGUGGUGUGUUGGUCCCUAACACACCACG [gtspaired] | -0.307 |
| UUUUUUUUUUGAGAUCGAGACGAUCUUCUG [tttttgagapaired] | -0.278 |
| UUUUUUUUUUGAGAUGGUUUCCAUCUCCUA [tttttgagapaired] | -0.235 |
| UUUUUUUUUUGAGACCGUCACGGUCUCCUG [tttttgagapaired] | 0.302 |
| GUGUGUUGUGUUGGAGUCUAACACAGCACG [gtspaired] | -0.665 |
| GUGUGUGGUGUUGGCAUCUAACACCGCGCG [gtspaired] | -0.685 |
| UUUUUUUUUUGAGAUGGGGUCCGUCUCCGG [tttttgagapaired] | 0.972 |
| UUUUUUUUUUGAGACUGCUCCAGUCUUCUA [tttttgagapaired] | 0.675 |
| UUUUUUUUUUGAGAGGGCGACCCUCUCCGG [tttttgagapaired] | 0.376 |
| GUGUGUGGUGUUGGUGCCUAACACCGCAUA [gtspaired] | -0.397 |
| UUUUUUUUUUGAGAUCGGCACGAUCUCCAG [tttttgagapaired] | 0.165 |
| GUGGUGUGUGUUGGUCUCUAACACAUACCG [gtspaired] | -0.951 |
| UUUUUUUUUUGAGAGUGAAACACUCUUCUA [tttttgagapaired] | 0.103 |
| UUUUUUUUUUGAGAUGGUGGCCAUCUCCUG [tttttgagapaired] | 0.831 |
| UUUUUUUUUUGAGAACGGUGCGUUCUCCAG [tttttgagapaired] | 0.294 |
| GGUGGUGGUGUUGGAUUCUAACACCGCUAC [gtspaired] | -0.44 |

| Sequence | binding signal (log2 fold change) |
| --- | --- |
| UUUUUUUUUUGAGACCGAACCGGUCUUCUG [tttttgagapaired] | 0.214 |
| UUUUUUUUUUGAGAGGGAAGCCCUUUCCAG [tttttgagapaired] | 0.22 |
| UUUUUUUUUUGAGACGGAAGCCGUUUCCUA [tttttgagapaired] | 0.29 |
| GUGUGUUGUGUUGGACUCUAACACAACGCG [gtspaired] | -0.968 |
| UUUUUUUUUUGAGAAGGUGCCCUUCUCCAG [tttttgagapaired] | 0.248 |
| UUUUUUUUUUGAGACCGCAACGGUCUCCAG [tttttgagapaired] | 0.495 |
| GUGUUGUGUGUUGGAGUCUAACACACAGCA [gtspaired] | -0.336 |
| GUGUGGUGUGUUGGUAUCUAACACAUCACA [gtspaired] | -0.794 |
| UUUUUUUUUUGAGAAGGACUCCUUCUCCAG [tttttgagapaired] | -0.146 |
| UUUUUUUUUUGAGACGGUGGCCGUCUCCGG [tttttgagapaired] | 0.626 |
| UUUUUUUUUUGAGACCGUGACGGUCUCCUA [tttttgagapaired] | 0.469 |
| GUGUGUGGUGUUGGUCCCUAACACCGCAUA [gtspaired] | -0.587 |
| UUUUUUUUUUGAGACGGUGGCCGUCUCCUA [tttttgagapaired] | 0.736 |
| GGUGGUUGUGUUGGUGCCUAACACAGCUAC [gtspaired] | -0.484 |
| GUGGUUGGUGUUGGCCUCUAACACCGAUCA [gtspaired] | -0.745 |
| GGUGUGUGUGUUGGCAUCUAACACACGCGC [gtspaired] | -0.795 |
| UUUUUUUUUUGAGACCGCAUCGGUCUCCGG [tttttgagapaired] | 0.214 |
| UUUUUUUUUUGAGAUGGAUACCAUUUCCGG [tttttgagapaired] | 0.327 |
| UUUUUUUUUUGAGAGCGUAACGUUCUCCAG [tttttgagapaired] | 0.37 |
| UUUUUUUUUUGAGACUGCAACAGUCUCCUG [tttttgagapaired] | 0.413 |
| UUUUUUUUUUGAGAGCGGAGCGUUCUCCGG [tttttgagapaired] | 0.401 |
| UUUUUUUUUUGAGACUGCUACAGUCUCCUG [tttttgagapaired] | 0.542 |
| UUUUUUUUUUGAGAUGGUCCCCAUCUCCGG [tttttgagapaired] | 0.902 |
| UUUUUUUUUUGAGACGGAGACCGUCUCCUA [tttttgagapaired] | 0.404 |
| GUGUGUUGUGUUGGCAUCUAACACAGCGCA [gtspaired] | -0.735 |
| GUGUGGUGUGUUGGACCCUAACACAUCACG [gtspaired] | -0.468 |

| Sequence | binding signal (log2 fold change) |
| --- | --- |
| UUUUUUUUUUGAGAAGGGAUCCUUCUCCAG [tttttgagapaired] | -0.199 |
| GUGGUUGGUGUUGGAGCCUAACACCAAUCA [gtspaired] | 0.221 |
| UUUUUUUUUUGAGACGGGUGCCGUCUCCAG [tttttgagapaired] | 0.742 |
| UUUUUUUUUUGAGAUGGAUUCCGUCUCCGG [tttttgagapaired] | 0.503 |
| UUUUUUUUUUGAGACUGACACAGUCUCCUG [tttttgagapaired] | 0.545 |
| GGUUGUGGUGUUGGUCCCUAACACCACAGC [gtspaired] | -0.583 |
| UUUUUUUUUUGAGAGGGUCCCCCUCUCCAG [tttttgagapaired] | 0.723 |
| UUUUUUUUUUGAGAGGGAGGCCCUUUCCAG [tttttgagapaired] | 0.423 |
| UUUUUUUUUUGAGAACGUGUCGUUCUCCGG [tttttgagapaired] | 0.511 |
| UUUUUUUUUUGAGACUGAGACAGUUUCCUA [tttttgagapaired] | 0.512 |
| UUUUUUUUUUGAGACGGCCACCGUCUUCUA [tttttgagapaired] | 0.756 |
| GUGUGUGGUGUUGGUCCCUAACACCAUACG [gtspaired] | -0.519 |
| UUUUUUUUUUGAGACCGCGACGGUCUUCUA [tttttgagapaired] | 0.369 |
| UUUUUUUUUUGAGAUGGUGGCUAUCUCCGG [tttttgagapaired] | 0.914 |
| GUUGUGUGUGUUGGCAUCUAACACACACGA [gtspaired] | -0.443 |
| GUGGUUGGUGUUGGUCUCUAACACCGACUA [gtspaired] | -0.921 |
| GUGUGUGGUGUUGGAAUCUAACACCACGCG [gtspaired] | -0.613 |
| UUUUUUUUUUGAGAGGGUAUCCCUCUCCAG [tttttgagapaired] | 0.169 |
| GUGGUGUGUGUUGGACUCUAACACAUACUA [gtspaired] | -0.923 |
| GUGUGUUGUGUUGGCCCCUAACACAACGCG [gtspaired] | -0.584 |
| GUGUGUGGUGUUGGCGUCUAACACCGCACG [gtspaired] | -0.448 |
| UUUUUUUUUUGAGACGGCGACCGUUUCCAG [tttttgagapaired] | 0.825 |
| UUUUUUUUUUGAGACGGGAGCCGUCUCCGG [tttttgagapaired] | 0.595 |
| GUGUUGUGUGUUGGAAUCUAACACACAGCA [gtspaired] | -0.564 |
| UUUUUUUUUUGAGACCGCUGCGGUCUUCUA [tttttgagapaired] | 0.781 |
| UUUUUUUUUUGAGACGGUCUCUGUCUCCUA [tttttgagapaired] | 0.849 |

| Sequence | binding signal (log2 fold change) |
| --- | --- |
| UUUUUUUUUUGAGACGGUGUCUGUCUCCUA [tttttgagapaired] | 0.818 |
| UUUUUUUUUUGAGAUGGUAACCAUCUUCUA [tttttgagapaired] | -0.301 |
| UUUUUUUUUUGAGAGCGAGACGCUCUCCUG [tttttgagapaired] | 0.403 |
| UUUUUUUUUUGAGACCGCAACGGUCUCCUA [tttttgagapaired] | 0.241 |
| UUUUUUUUUUGAGAGGGCGGCCCUCUCCGG [tttttgagapaired] | 1.14 |
| GUUGUGUGUGUUGGUCUCUAACACACACGA [gtspaired] | -0.545 |
| GGUGGUGGUGUUGGCGCCUAACACCAUCGC [gtspaired] | -0.463 |
| UUUUUUUUUUGAGAUCGAGUCGAUCUCCUA [tttttgagapaired] | 0.209 |
| UUUUUUUUUUGAGAUCGGGACGAUUUCCAG [tttttgagapaired] | 0.446 |
| UUCUCUUCUCCUCCACAGGAGGGGGAGGGA [ctspaired] | -0.886 |
| GUGUGUUGUGUUGGCAUCUAACACAACACG [gtspaired] | -0.522 |
| GGUGUUGGUGUUGGCCUCUAACACCGAUAC [gtspaired] | -0.813 |
| UUUUUUUUUUGAGACUGUAUCAGUUUCCUG [tttttgagapaired] | 0.479 |
| UUUUUUUUUUGAGAUCGAGGCGAUCUCCGG [tttttgagapaired] | 0.183 |
| UUUUUUUUUUGAGAUGGAGCCCAUCUCCUA [tttttgagapaired] | 0.375 |
| GUGUGGUGUGUUGGUGCCUAACACACCGCG [gtspaired] | -0.428 |
| UUUUUUUUUUGAGAUGGCGGCCAUCUCCGG [tttttgagapaired] | 0.72 |
| UUUUUUUUUUGAGACUGAUCCAGUCUUCUA [tttttgagapaired] | -0.172 |
| UUUUUUUUUUGAGAUGGGGGCCAUUUCCAG [tttttgagapaired] | 0.882 |
| GUUGUGUGUGUUGGACUCUAACACACGCAG [gtspaired] | -0.698 |
| UUUUUUUUUUGAGACGGAUUCUGUCUCCAG [tttttgagapaired] | 0.173 |
| UUUUUUUUUUGAGACUGAUCCAGUCUUCUG [tttttgagapaired] | 0.0108 |
| GUGUGUGGUGUUGGCACCUAACACCGCGCG [gtspaired] | -0.535 |
| UUUUUUUUUUGAGACGGAGUCUGUCUCCUA [tttttgagapaired] | 0.275 |
| UUUUUUUUUUGAGAUGGCAACCAUCUUCUG [tttttgagapaired] | 0.405 |
